Assay results: publication PMC4336329 (PLoS ONE, 2015)
About 14,000 (4.5%) of roughly 310,000 compounds showed an effect of 50% or more. Effects have a minus sign here. Some of the results follow.

Each compound was assayed against human ether-à-go-go-related gene (hERG) potassium channel (human, UniProt Q12809) (assay: primary screen, population patch clamp on CHO cells stably expressing hERG).
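Also: peak tail current of the secondary pulse compared with the same well before compound.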

Sequence of human ether-à-go-go-related gene (hERG) potassium channel (Q12809 whole entry, looked up): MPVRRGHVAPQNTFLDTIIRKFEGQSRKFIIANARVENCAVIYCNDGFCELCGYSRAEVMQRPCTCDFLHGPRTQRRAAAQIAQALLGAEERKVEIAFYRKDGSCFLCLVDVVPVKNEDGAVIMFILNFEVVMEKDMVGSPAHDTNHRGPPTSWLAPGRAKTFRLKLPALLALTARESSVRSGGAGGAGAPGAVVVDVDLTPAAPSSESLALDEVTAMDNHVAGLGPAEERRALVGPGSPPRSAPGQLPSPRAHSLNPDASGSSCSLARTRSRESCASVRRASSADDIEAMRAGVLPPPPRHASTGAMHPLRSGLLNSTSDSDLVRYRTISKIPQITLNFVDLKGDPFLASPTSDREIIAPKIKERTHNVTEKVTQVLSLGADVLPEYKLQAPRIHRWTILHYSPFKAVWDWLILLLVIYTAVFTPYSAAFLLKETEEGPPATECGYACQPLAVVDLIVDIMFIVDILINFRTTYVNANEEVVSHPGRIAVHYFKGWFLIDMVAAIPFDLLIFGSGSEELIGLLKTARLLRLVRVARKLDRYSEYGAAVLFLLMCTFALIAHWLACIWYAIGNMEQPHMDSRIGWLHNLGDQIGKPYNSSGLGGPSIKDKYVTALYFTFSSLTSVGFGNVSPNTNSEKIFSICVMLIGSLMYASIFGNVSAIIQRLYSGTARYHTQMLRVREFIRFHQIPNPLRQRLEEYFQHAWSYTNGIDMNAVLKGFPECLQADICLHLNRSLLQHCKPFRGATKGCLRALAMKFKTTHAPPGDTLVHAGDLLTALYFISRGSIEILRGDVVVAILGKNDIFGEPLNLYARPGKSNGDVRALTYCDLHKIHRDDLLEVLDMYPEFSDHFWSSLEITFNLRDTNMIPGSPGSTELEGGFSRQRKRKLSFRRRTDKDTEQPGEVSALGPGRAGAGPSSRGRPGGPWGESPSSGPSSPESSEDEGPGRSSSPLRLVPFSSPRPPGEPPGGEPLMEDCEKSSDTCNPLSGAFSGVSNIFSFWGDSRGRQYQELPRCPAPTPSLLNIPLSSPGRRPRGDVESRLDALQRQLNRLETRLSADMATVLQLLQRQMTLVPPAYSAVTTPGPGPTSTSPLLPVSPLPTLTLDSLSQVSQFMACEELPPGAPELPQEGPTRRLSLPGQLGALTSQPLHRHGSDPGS

SMILES	hERG current change (%, negative = inhibition) at 10uM
CC(C)CN(C(=O)COC(=O)CCN1C(=O)c2ccccc2C1=O)C1CCS(=O)(=O)C1 (centres unmarked)	11%
COc1ccc(NC(=O)CN(C)C(=O)c2ccc3c(c2)NC(=O)CS3)cc1	-10.2%
O=C(NCCN1CCc2ccccc2C1)C1CCN(S(=O)(=O)N2CCCCC2)CC1	-53.8%
CC1CN(C(=O)C2CC2)C(C)CN1C(=O)C1CC1 (centres unmarked)	-4.38%
COc1ccc(/C=N/NC(=O)CNC(=O)c2cccs2)cc1	5.84%
CN1C(=O)CS(=O)c2ccc(C(=O)NC3CC3)cc21 (centres unmarked)	16.4%
CCOc1ncccc1C(=O)N1CCN(S(=O)(=O)c2cccs2)CC1	3.64%
CCN(CC)C(=O)N1CCC(NC(=O)Cc2ccccc2)CC1	-8.93%
Cc1cc(C)c(C#N)c(SCc2ccc3c(c2)OCO3)n1	1.92%
COc1cccc(NC(=O)CSc2nc3ccccc3nc2N2CCCC2)c1	-15.3%
CC1CN(C2=N/C(=C/c3ccc4c(c3)OCO4)C(=O)N2)CC(C)O1 (centres unmarked)	3.07%
COc1ccccc1-c1cc(C(=O)Nc2sc3c(c2C#N)CCC(C)C3)c2ccccc2n1 (centres unmarked)	10.5%
O=C(c1cnc2sccn2c1=O)N1CCCc2ccccc21	17.1%
COC(=O)c1c(NS(C)(=O)=O)sc2c1CCCC2	0.0367%
CC(/C=C/c1ccccc1)=N\NC(=O)CNC(=O)c1ccccc1Cl	7.15%
Cc1cc([N+](=O)[O-])nn1CCCC(=O)NCc1ccc(F)cc1	-0.962%
CCn1nnnc1SCC(=O)NC1CCCC1	19.8%
CCOc1ccc(S(=O)(=O)Nc2cccc(OC)c2)cc1	-25%
O=C(CCc1ccccc1)Nc1ccccc1	-2.56%

SMILES	hERG current change (%, negative = inhibition) at 10uM
COc1ccccc1OCCSc1nc2ccccc2c(=O)[nH]1	-5.52%
CC(=O)Cc1nsc(NC(=O)c2ccc(-c3ccc(Cl)c(Cl)c3)o2)n1	-0.558%
CC(=O)C1=C(C)Nc2ncnn2C1c1cccc(Br)c1 (centres unmarked)	-10.1%
CC(C)CCNC(=O)C(=O)NCC1OCCCN1S(=O)(=O)c1cccs1 (centres unmarked)	1.45%
Cc1ccc(/C=C/C(=O)O)cc1S(=O)(=O)Nc1ccccc1C(=O)O	22%
Cc1cccnc1CCNC(=O)CCc1nnc(-c2ccccc2)o1	-4.37%
COc1ccc(OC)c(CNS(=O)(=O)c2cc(CN3C(=O)c4cccnc4C3=O)ccc2OC)c1	-18.6%
COCCCNC(=O)CCc1c(C)nc2c(c(C)nn2-c2ccc(C)cc2)c1C	-7.71%
C=CCOC(=O)COc1cc(C)cc2oc(=O)c3c(c12)CCC3	-44.1%
COc1ccc(OC)c(C(=O)CCCC(=O)c2cc(OC)ccc2OC)c1	-1.53%
Nc1nncn1C(=O)CCCN1C(=O)c2ccccc2C1=O	4.44%
CCOC(=O)c1nn(-c2ccc(Cl)cc2)c2nc(-c3ccc(C)cc3)c(C#N)c(=O)n12	4.89%
CC(=O)NN1C(=O)/C(=C2/Sc3ccccc3N2C)SC1=S	19.8%
COC(=O)c1ccc(/C(O)=C(\C#N)c2nc3ccccc3s2)cc1	15.4%
CC(=O)Nc1ccc(N(C(=O)CNC(=O)c2ccco2)C(C(=O)NCc2ccco2)c2ccccc2)cc1 (centres unmarked)	14.4%
CCOC(=O)c1sc(NC(=O)c2c(C)nn(Cc3ccccc3)c2C)cc1C	-4.1%
CCc1ccc(N(C(=O)c2csnn2)C(C(=O)NC(C)(C)CC)c2ccccn2)cc1 (centres unmarked)	-54.3%
Cn1c(NC(=O)C[n+]2cc(-c3ccc(Cl)cc3)n3c2CCC3)cc(=O)n(C)c1=O.[Cl-]	11.3%
O=C1C(Cl)=C(N2CCC(C(=O)O)CC2)C(=O)c2ccccc21	-18.8%

SMILES	hERG current change (%, negative = inhibition) at 10uM
Cc1nnc(SCC(=O)Nc2c(Cl)cccc2Cl)[nH]c1=O	19.7%
CC(=O)Nc1ccc(S(=O)(=O)Nc2ccc3c(c2)C(=O)OC3)cc1	17.4%
COC(=O)C1=C(C)N(Cc2ccccc2)C(=O)N[C@H]1c1ccccc1	-13.5%
O=C(Nc1ccccc1)[C@@H]1CC=C[C@@H]2CCN(C3CCCCC3)C(=O)[C@@H]21	2.73%
CCCCN(C(=O)c1ccc([N+](=O)[O-])s1)c1c(N)n(CC(C)C)c(=O)[nH]c1=O	5.29%
O=C(/C=C/c1cccs1)c1ccc(Br)cc1	7.19%
O=C(/C=C/c1ccc(Cl)c([N+](=O)[O-])c1)c1cccnc1	-6.3%
Cc1cccc(CSc2nc3[nH]ncc3c(=O)[nH]2)c1	-3.96%
O=C(Nc1ccc(N2C(=O)c3cccc4cccc(c34)C2=O)cc1)c1ccc(N2CCCCC2)c([N+](=O)[O-])c1	-9.73%
Cc1ccc(C2CC(=O)NC(SCCC(C)C)=C2C#N)cc1 (centres unmarked)	-10.6%
COc1ccc(CN(C)C2CCCCC2)c(C)c1C	-28.4%
Cc1cccc(OCCC(=O)OCC(=O)Nc2c(C)nn(-c3ccccc3)c2C)c1	-22.6%
Fc1ccc2c(c1)nnn2C1CCN(Cc2c(Cl)cccc2Cl)CC1	7.11%
CC(NS(=O)(=O)c1ccc2c(c1)oc(=O)n2C)c1ccccc1 (centres unmarked)	6.29%
Cc1n[nH]c(C)c1S(=O)(=O)N1CCCC(C(=O)NC2CCCCC2)C1 (centres unmarked)	6.14%
Nc1ccc2oc3ccc(N)cc3c(=O)c2c1	13.8%
Cc1ccc(C2CC2c2n[nH]c(=S)n2-c2cccc(Cl)c2)cc1 (centres unmarked)	21.6%
C=CCN(CC=C)CCOc1ccccc1.O=C(O)C(=O)O	3.37%
